Reference: a collection of fitness landscapes (doi:10.1016/j.celrep.2020.107928)
In all, about 81,000 sequences were measured (“one-hybrid fitness for binding parS DNA”: median about -0.17, highest 2% from about 0.51 on). Some of the results follow.

B1: Caulobacter ParB omega fusion; a variant is named by its letters at X, in order, B8GW30 (parent)
chain: MESVVVGEPGMSEGRRGLGRGLSALLGEVDAAPAQAPGEQLGGSREAPIEILQRNPDQPRRTFREEDLEDLSNSIREKGVLQPILVRPSPDTAGEYQIVAGERAWRAAQRAGLKTVPIMVRELDDLAVLEIGIIENVQRADLNVLEEALSYKVLMEKFERTQENIAQTIGKSXSHVANXMRLLXLPDEVQSYLVSGELTAXHARAIAAAADPVALAKQIIEGGLSVRETEALARKAPNLSAGKSKGGRPPRVKDTDTQALESDLSSVLGLDVSIDHRGSTGTLTITYATLEQLDDLCNRLTRGI

Variants of: B1
Test: one-hybrid fitness for binding parS DNA (scaled: cognate 1, non-cognate 0); higher = stronger binding
Details: with parS DNA site
Outline: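 Pre- and post-selection plasmids were Illumina-sequenced, three replicate libraries were pooled, and any variant with under 10 reads was removed. The libraries were Caulobacter ParB with four specificity codons randomised, selected in E. coli USO through a HIS3 reporter whose site is 19 bp from the promoter. Cells grew 48 hours at 37°C on M9 without histidine, with 0.1 mM IPTG and 5 mM 3-AT. Fitness is the log change in variant-to-wild-type read ratio, rescaled against cognate and non-cognate.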
SRWV was tested, and the “one-hybrid fitness for binding parS DNA” value was at most 0.2. In the case of TPFW, the “one-hybrid fitness for binding parS DNA” value is reported as at most 0.2. With RLQA the “one-hybrid fitness for binding parS DNA” value was 0.616. With MRIC the “one-hybrid fitness for binding parS DNA” value was at most 0.2. For GSHR, the “one-hybrid fitness for binding parS DNA” value was at most 0.2. WYGS was tested, and the “one-hybrid fitness for binding parS DNA” value was at most 0.2. With LPTM the “one-hybrid fitness for binding parS DNA” value was at most 0.2. RTVS was tested, and the “one-hybrid fitness for binding parS DNA” value was 1. With RNQM the “one-hybrid fitness for binding parS DNA” value was 0.228. For MSFR, the “one-hybrid fitness for binding parS DNA” value was at most 0.2. For VSAE, the “one-hybrid fitness for binding parS DNA” value was at most 0.2. For DAIE, the “one-hybrid fitness for binding parS DNA” value was at most 0.2. In the case of LDKA, the “one-hybrid fitness for binding parS DNA” value is reported as at most 0.2. LNVW was tested, and the “one-hybrid fitness for binding parS DNA” value was at most 0.2. In the case of TSQK, the “one-hybrid fitness for binding parS DNA” value is reported as at most 0.2. With NGII the “one-hybrid fitness for binding parS DNA” value was at most 0.2. For QSEK, the “one-hybrid fitness for binding parS DNA” value was at most 0.2. For YWHI, the “one-hybrid fitness for binding parS DNA” value was at most 0.2. In the case of HHYS, the “one-hybrid fitness for binding parS DNA” value is reported as at most 0.2. For KAHD, the “one-hybrid fitness for binding parS DNA” value was at most 0.2. In the case of HMPD, the “one-hybrid fitness for binding parS DNA” value is reported as at most 0.2. For QQKP, the “one-hybrid fitness for binding parS DNA” value was at most 0.2. In the case of TNEV, the “one-hybrid fitness for binding parS DNA” value is reported as at most 0.2. In the case of FTMR, the “one-hybrid fitness for binding parS DNA” value is reported as at most 0.2. With TTQQ the “one-hybrid fitness for binding parS DNA” value was at most 0.2. In the case of YDSN, the “one-hybrid fitness for binding parS DNA” value is reported as at most 0.2. AYSH was tested, and the “one-hybrid fitness for binding parS DNA” value was at most 0.2. For RWRI, the “one-hybrid fitness for binding parS DNA” value was at most 0.2. With TQLV the “one-hybrid fitness for binding parS DNA” value was at most 0.2. With PMQV the “one-hybrid fitness for binding parS DNA” value was at most 0.2. RVPH was tested, and the “one-hybrid fitness for binding parS DNA” value was at most 0.2. LIRD was tested, and the “one-hybrid fitness for binding parS DNA” value was at most 0.2. For KLLY, the “one-hybrid fitness for binding parS DNA” value was at most 0.2. With ALLQ the “one-hybrid fitness for binding parS DNA” value was at most 0.2. FTAL was tested, and the “one-hybrid fitness for binding parS DNA” value was at most 0.2. With IASC the “one-hybrid fitness for binding parS DNA” value was at most 0.2. For RYVC, the “one-hybrid fitness for binding parS DNA” value was 0.907. In the case of RRQM, the “one-hybrid fitness for binding parS DNA” value is reported as 0.324. AHET was tested, and the “one-hybrid fitness for binding parS DNA” value was at most 0.2. With PSNL the “one-hybrid fitness for binding parS DNA” value was at most 0.2. For DPDS, the “one-hybrid fitness for binding parS DNA” value was at most 0.2. For RFDC, the “one-hybrid fitness for binding parS DNA” value was 0.793. With HGNL the “one-hybrid fitness for binding parS DNA” value was at most 0.2. With MVLN the “one-hybrid fitness for binding parS DNA” value was at most 0.2. With PPGT the “one-hybrid fitness for binding parS DNA” value was at most 0.2. In the case of DFCR, the “one-hybrid fitness for binding parS DNA” value is reported as at most 0.2. YSPC was tested, and the “one-hybrid fitness for binding parS DNA” value was at most 0.2. With DTVS the “one-hybrid fitness for binding parS DNA” value was at most 0.2. For RVIP, the “one-hybrid fitness for binding parS DNA” value was at most 0.2. In the case of FWKS, the “one-hybrid fitness for binding parS DNA” value is reported as at most 0.2. In the case of TDMC, the “one-hybrid fitness for binding parS DNA” value is reported as at most 0.2. VTVY was tested, and the “one-hybrid fitness for binding parS DNA” value was at most 0.2. TWVR was tested, and the “one-hybrid fitness for binding parS DNA” value was at most 0.2. In the case of KWKD, the “one-hybrid fitness for binding parS DNA” value is reported as at most 0.2. For NRKF, the “one-hybrid fitness for binding parS DNA” value was at most 0.2. In the case of SCTR, the “one-hybrid fitness for binding parS DNA” value is reported as at most 0.2. In the case of AYHT, the “one-hybrid fitness for binding parS DNA” value is reported as at most 0.2. In the case of PVAS, the “one-hybrid fitness for binding parS DNA” value is reported as at most 0.2. With TGPK the “one-hybrid fitness for binding parS DNA” value was at most 0.2. EKNG was tested, and the “one-hybrid fitness for binding parS DNA” value was at most 0.2. With NGTC the “one-hybrid fitness for binding parS DNA” value was at most 0.2. With QPPG the “one-hybrid fitness for binding parS DNA” value was at most 0.2. MRMM was tested, and the “one-hybrid fitness for binding parS DNA” value was at most 0.2. In the case of CDMS, the “one-hybrid fitness for binding parS DNA” value is reported as at most 0.2. In the case of HRPI, the “one-hybrid fitness for binding parS DNA” value is reported as at most 0.2. HELN was tested, and the “one-hybrid fitness for binding parS DNA” value was at most 0.2. With RGNR the “one-hybrid fitness for binding parS DNA” value was at most 0.2. For SHRE, the “one-hybrid fitness for binding parS DNA” value was at most 0.2. With EDKF the “one-hybrid fitness for binding parS DNA” value was at most 0.2. For QYVL, the “one-hybrid fitness for binding parS DNA” value was at most 0.2. RNMR was tested, and the “one-hybrid fitness for binding parS DNA” value was at most 0.2. With YGTF the “one-hybrid fitness for binding parS DNA” value was at most 0.2. In the case of LLCM, the “one-hybrid fitness for binding parS DNA” value is reported as at most 0.2. With NMFI the “one-hybrid fitness for binding parS DNA” value was at most 0.2. RYEA was tested, and the “one-hybrid fitness for binding parS DNA” value was 0.548. For QNMW, the “one-hybrid fitness for binding parS DNA” value was at most 0.2.
